From publication PMC5894220 come the findings set out here.

Assay [1] concerns the target starch synthase IIIa (rice, Oryza sativa japonica cv. Nipponbare (endogenous in developing seeds)). As to the kind of experiment: condition: only in extract of ss1^L/ss2a^L/SS3a seeds; co-IP; as a1, soluble proteins of developing seeds of ss1^L/ss2a^L/SS3a (SSI reduced); control with pre-immune serum.
Assay [2] has the same target. As to the kind of experiment: co-IP; immuno-precipitation with isozyme specific antibodies from soluble proteins of developing rice seeds, immuno-blotting; wild-type Nipponbare (SS1/ss2a^L/SS3a); the BEI-BEIIb, BEI-PUL and Pho1-BEIIa pairs also in the three mutant lines; control with pre-immune serum.
Assay [3] has as its target T1, starch synthase IIa (rice, Oryza sativa japonica cv. Nipponbare (endogenous in developing seeds)) (UniProt Q0DDE3).
T1 sequence: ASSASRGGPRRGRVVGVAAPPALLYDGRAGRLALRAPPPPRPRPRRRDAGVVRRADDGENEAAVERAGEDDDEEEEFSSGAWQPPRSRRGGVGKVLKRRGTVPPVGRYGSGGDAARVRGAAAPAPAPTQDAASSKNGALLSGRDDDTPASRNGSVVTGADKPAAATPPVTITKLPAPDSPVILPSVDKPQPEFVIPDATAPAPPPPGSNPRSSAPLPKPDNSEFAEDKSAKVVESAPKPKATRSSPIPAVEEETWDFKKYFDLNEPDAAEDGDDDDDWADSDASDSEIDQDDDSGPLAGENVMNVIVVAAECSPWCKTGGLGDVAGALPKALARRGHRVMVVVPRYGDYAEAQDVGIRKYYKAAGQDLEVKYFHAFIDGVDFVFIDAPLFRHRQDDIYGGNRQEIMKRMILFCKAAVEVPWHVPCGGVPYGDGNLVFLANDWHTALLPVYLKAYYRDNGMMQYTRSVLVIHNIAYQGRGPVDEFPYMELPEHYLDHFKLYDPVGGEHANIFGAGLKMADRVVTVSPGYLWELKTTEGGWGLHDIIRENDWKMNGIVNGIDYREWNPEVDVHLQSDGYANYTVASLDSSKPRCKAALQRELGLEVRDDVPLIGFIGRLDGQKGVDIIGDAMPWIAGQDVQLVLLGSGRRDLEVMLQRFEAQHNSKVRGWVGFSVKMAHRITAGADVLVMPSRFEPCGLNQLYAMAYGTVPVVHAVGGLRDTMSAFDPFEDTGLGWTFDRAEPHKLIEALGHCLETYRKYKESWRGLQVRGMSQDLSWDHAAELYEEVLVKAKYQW
As to the kind of experiment: condition: only in extract of SS1/ss2a^L/ss3a seeds; co-IP; as a1, soluble proteins of developing seeds of SS1/ss2a^L/ss3a (SSIIIa absent); control with pre-immune serum.

Assay [4] concerns the target T1, starch synthase IIa (rice, Oryza sativa japonica cv. Nipponbare (endogenous in developing seeds)). Description: condition: only in extract of ss1^L/ss2a^L/SS3a seeds; co-IP; as a1, soluble proteins of developing seeds of ss1^L/ss2a^L/SS3a (SSI reduced); control with pre-immune serum.
Assay [5] shares this target. As to the kind of experiment: condition: only in extract of ss1^L/ss2a^L/ss3a seeds; co-IP; as a1, soluble proteins of developing seeds of ss1^L/ss2a^L/ss3a (SSI reduced, SSIIIa absent); control with pre-immune serum.
Assay [6] has the same target. Description: co-IP; immuno-precipitation with isozyme specific antibodies from soluble proteins of developing rice seeds, immuno-blotting; wild-type Nipponbare (SS1/ss2a^L/SS3a); the BEI-BEIIb, BEI-PUL and Pho1-BEIIa pairs also in the three mutant lines; control with pre-immune serum.

No constants are given. Whether binding was seen depends on the method and setting. In cells and extracts the contact can be indirect. Some binding calls cover weakened binding; strength is not graded here.

B1: starch synthase IIa (enzyme, UniProt Q0DDE3 17-810)
chain: T1 sequence
With B1, the values for the binding result in assay [1] and in assay [2] were “no binding” and “binds”, respectively.

B2: starch synthase I (enzyme, UniProt Q0DEC8 114-641)
chain: SEQESEIMDVKEQAQAKVTRSVVFVTGEASPYAKSGGLGDVCGSLPIALALRGHRVMVVMPRYMNGALNKNFANAFYTEKHIKIPCFGGEHEVTFFHEYRDSVDWVFVDHPSYHRPGNLYGDNFGAFGDNQFRYTLLCYAACEAPLILELGGYIYGQKCMFVVNDWHASLVPVLLAAKYRPYGVYRDARSVLVIHNLAHQGVEPASTYPDLGLPPEWYGALEWVFPEWARRHALDKGEAVNFLKGAVVTADRIVTVSQGYSWEVTTAEGGQGLNELLSSRKSVLNGIVNGIDINDWNPSTDKFLPYHYSVDDLSGKAKCKAELQKELGLPIRPDVPLIGFIGRLDYQKGIDLIKLAIPDLMRDNIQFVMLGSGDPGFEGWMRSTESGYRDKFRGWVGFSVPVSHRITAGCDILLMPSRFEPCGLNQLYAMQYGTVPVVHGTGGLRDTVENFNPFAEKGEQGTGWAFSPLTIEKMLWALRMAISTYREHKSSWEGLMKRGMSSDFTWDHAASQYEQIFEWAFMDQPYVM
B2: the binding result is “no binding” in assay [3], “no binding” in assay [4], “no binding” in assay [5] and “binds” in assay [6].
